Measured values reported in PubChem BioAssay AID686971 (National Center for Advancing Translational Sciences (NCATS), 2013).
The campaign covered roughly 360,000 compounds. About 7,500 (2.1%) were called active. Inconclusive results, whose numbers are uncertain, are shown with a selection of clear calls. Calls follow the shape of the dose curve; as a rule, active = well fitted cell-killing curve with a large enough effect; inconclusive = small, poorly fitted or top-dose-only effect, or effect the other way, or another doubt; inactive = no such curve, though single readings can be large or run the other way. Potencies of inconclusive entries are left out as doubtful fits.

assay: qHTS for induction of synthetic lethality in tumor cells producing 2HG: qHTS for the HT-1080-IDH1KD cell line; conditions: HT-1080 IDH1 knockdown viability, ATP luminescence, 48 h; activity, negative = toxicity: at 46.1 µM (top of the series) unless noted;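 as to activity, negative = toxicity: 0% = DMSO wells and -100% = cell-free medium wells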
How it was run: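 After a 2 h attachment period, IDH1KD HT-1080 cells took pin-transferred compound for 48 h at 37 °C; ATP-based luminescence after 10 min room-temperature reagent incubation reported viability.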
Potency is read from the fitted curve at half-maximal effect; tags tell the direction and shape of the fitted curve.

Compound	Potency	activity, negative = toxicity
Nc1ccccc1SC(CC(=O)c1ccccc1)c1ccc([N+](=O)[O-])cc1 (stereo not drawn)	inconclusive [cytotoxic, single point]	–
CC(C)(C)SCCNS(=O)(=O)c1ccc(Cl)cc1	inconclusive [cytotoxic, single point]	–
CC(=O)N(C(C)=O)n1c(/C=C/c2ccc([N+](=O)[O-])cc2)nc2ccccc2c1=O	inconclusive [cytotoxic, partial curve]	–
CCOc1ccc(S(=O)(=O)N2CCCC(C(=O)N3CCOCC3)C2)cc1 (stereo not drawn)	–	inactive: 0.608%
Cc1ccccc1Nc1nc(Nc2ccccc2C)nc(SC2=NCCS2)n1	–	inconclusive: -42.4%
CCOC(=O)/C(=N\Nc1cc(Cl)ccc1Cl)N1CCN(CC)CC1	inconclusive [cytotoxic, single point]	–
COc1ccc(C(=O)/C=C/C(=O)N(CC(=O)NC2CCCCC2)CC2CCCO2)c(O)c1 (stereo not drawn)	inconclusive [cytotoxic, single point]	–
Cc1cccc(NC(=O)c2ccc(N(C)C3CCCCC3)c([N+](=O)[O-])c2)n1	inconclusive [cytotoxic, single point]	–
O=C(CSc1nnc(NC(=O)C2CC(=O)N(c3ccc(F)cc3)C2)s1)NCc1ccco1 (stereo not drawn)	inconclusive [cytotoxic, partial curve]	–
O=C(/C=C/c1ccc2c(c1)OCO2)NCCSCc1ccc(Cl)cc1	–	inactive: -18.3%
CCc1ccc2[nH]c(=O)c(CN(CCN(CC)CC)C(=O)NC3CCCCC3)cc2c1	inconclusive [cytotoxic, single point]	–
CC(C)CCNC(=O)C1CCN(Cc2cccc(OCc3ccccc3)c2)CC1	active: 23.1 µM	–
CCC(Sc1nc2n[nH]c(C)c2c(=N)n1-c1ccc(C)c(Cl)c1)C(=O)N1CCOCC1 (stereo not drawn)	–	inactive: -11.4%
CCOC(=O)[C@]12CCC=C1N(Cc1ccc(Cl)cc1Cl)C(=O)[C@H](CC(=O)NCC1CCCCC1)C2	inconclusive [cytotoxic, single point]	–
COc1ccc(OC)c(NC(=O)COC(=O)CCc2ccc(S(=O)(=O)N3CCOCC3)cc2)c1	–	inactive: 11.3%
Oc1ccc(-c2csc(Nc3ccc4c(c3)OCO4)n2)c(O)c1	–	inactive: -9.89%
Cc1ccccc1C(=O)NNC(=S)Nc1cccc(C(F)(F)F)c1	inconclusive [cytotoxic, single point]	–
CCCCn1nnnc1C(c1ccccc1)N1CCN(c2ccc(OC)cc2)CC1 (stereo not drawn)	–	inactive: -7.96%
COc1ccccc1NC(=O)c1cc(Cl)nnc1Cl	inconclusive [cytotoxic, single point]	–
CSc1ccccc1NC(=O)CN(C)C(=O)Cc1c(F)cccc1Cl	–	inactive: 12.2%
COc1ccccc1Sc1nc(-c2ccccn2)ncc1OC	inconclusive [cytotoxic, single point]	–
O=C(N/N=C/c1ccc(Cl)cc1)c1n[nH]c2c1CCCC2	active: 0.517 µM	–
COc1ccc(F)cc1C(=O)C1CCCN(Cc2cnc(N3CCCC3)s2)C1 (stereo not drawn)	–	inactive: 5.58%
CC(C)c1ccc(NC(=O)CCC(=O)NCc2ccco2)cc1	inconclusive [cytotoxic, single point]	–
CC1(C(=O)NS(=O)(=O)c2ccccc2)CCN1C(=O)CCc1ccccc1 (stereo not drawn)	inconclusive [cytotoxic, single point]	–

Compound	Potency	activity, negative = toxicity
COc1ccc2nc(NC(=O)Nc3cccc4ccccc34)sc2c1	inconclusive [cytotoxic, single point]	–
Cc1cccc(C)c1OC(=O)c1ccccc1	–	inactive: 0.139%
CCS(=O)(=O)Nc1cccc(C2=NN(C(=O)c3ccco3)C(c3ccco3)C2)c1 (stereo not drawn)	inconclusive [cytotoxic, partial curve]	–
O=C(Nc1ccc(S(=O)(=O)N2CCCC2)cc1)Nc1ccc(F)cc1F	–	inactive: -25.2%
CCCC(=O)Nc1c2c(nn1-c1ccc([N+](=O)[O-])cc1)CS(=O)(=O)C2	–	inactive: 0%
Cc1cc(OCC(=O)Nc2cc(C(C)(C)C)on2)ccc1[N+](=O)[O-]	–	inactive: 5.55%
CCn1c(/C=C/c2ccccc2)nc2ccccc21	inconclusive [cytotoxic, single point]	–
COc1ccc(S(=O)(=O)NNC(=O)c2cc3c4ccccc4n(C)c3s2)cc1	inconclusive [cytotoxic, partial curve]	–
c1ccc(N(c2ccccc2)c2nc(N3CCCC3)nc(-n3ccnc3)n2)cc1	–	inconclusive: -2.73% [cytotoxic]
CCOC(=O)CSC1=NC(=O)/C(=C\c2ccc(Cl)cc2)S1	inconclusive [cytotoxic, single point]	–
CCCNC(=S)NC1CCCC1	inconclusive [cytotoxic, single point]	–
Cc1cccc(NC(=S)NNC(=O)c2ccc(Br)o2)c1	inconclusive [rising, full curve, poor fit]	–
COc1ccccc1OCCC(=O)Nc1nc(C)cs1	–	inactive: 7.2%
CCN1C(=O)C(CC(=O)Nc2ccc(OC)cc2)N(CCN2CCOCC2)C1=S (stereo not drawn)	–	inactive: -1.95%
Cc1ccc(-n2nc3c(=O)n(C(C)C(=O)NCc4ccccc4Cl)nc(C)c3c2C)cc1 (stereo not drawn)	–	inactive: -7.69%
CCOC(=O)c1oc2cc(O)cc(O)c2c(=O)c1OCc1ccccc1	–	inactive: -8.75%
O=C1c2ccccc2-c2n[nH]c(=O)c3ccc(N4CCCCC4)c1c23	inconclusive [cytotoxic, partial curve]	–
Cc1ccc2[nH]c(=O)c(COC(=O)c3cccs3)cc2c1	inconclusive [rising, partial curve]	–
NC(Cc1ccc(F)cc1)c1csc(Nc2ccc(C(=O)c3ccccc3)cc2)n1 (stereo not drawn)	active: 14.6 µM	–
COCCCn1c(SCc2nnc(-c3ccc(OC)c(OC)c3)o2)nc2ccccc2c1=O	inconclusive [cytotoxic, single point]	–
CCOC(=O)Cc1cc(=O)n2[nH]cc(-c3cccc(Br)c3)c2n1	inconclusive [cytotoxic, partial curve]	–
CCC1CCCCN1CCCNC(=O)CSc1nc2nc(C)c(Cc3ccc(C)cc3)c(C)n2n1 (stereo not drawn)	inconclusive [cytotoxic, single point]	–
O=[N+]([O-])c1cc(/C=N\Nc2nc(-c3ccccc3)cs2)ccc1O	inconclusive [cytotoxic, single point]	–
c1ccc2nc3c(nc2c1)c1ccccc1n3CCN1CCOCC1	active: 12.6 µM	–
CC(C)c1onc(C(=O)NCCc2ccccc2)c1[N+](=O)[O-]	inconclusive [cytotoxic, single point]	–

Compound	Potency	activity, negative = toxicity
CC(=O)Nc1nc(-c2cccc3ccccc23)cs1	–	inactive: -4.59%
O=[N+]([O-])c1cccc(N/N=C/c2ccc(N3CCOCC3)cc2)c1	inconclusive [cytotoxic, partial curve]	–
COc1ccc(CNCc2cc(Cl)ccc2O)cc1	–	inconclusive: -1.21% [cytotoxic]
COc1cccc(N2CCN(Cc3nc4scc(-c5ccccc5)c4c(=O)[nH]3)CC2)c1	active: 11.6 µM	–
Cc1cc(NC(=O)CSCC(=O)Nc2cccc(S(=O)(=O)N3CCCCCC3)c2)no1	–	inactive: 1.43%
O=C(Nc1ccc(CN2CCOCC2)cc1)c1ccc(-c2ccc(Br)cc2)o1	inconclusive [cytotoxic, single point]	–
O=C(CCCN1C(=O)c2cccc3cccc(c23)C1=O)N1CCN(c2ccccc2)CC1	–	inactive: -4.54%
O=C(Nc1cccc(Cl)c1)Nc1csc([N+](=O)[O-])c1	active: 7.31 µM	–
CC1=NC(Nc2nc(C)c3ccccc3n2)=NC(C)(C)C1	–	inactive: 1.53%
O=C(OCc1ccccc1)N1CCC2CC1c1cc(/C=C/CCCSc3ncccn3)ccc12 (stereo not drawn)	–	inactive: -5.29%
COc1ccc([N+](=O)[O-])cc1NCc1cccnc1	inconclusive [cytotoxic, single point]	–
COc1ccc([C@H]2CC(=O)C=C(c3ccc4ccn(C)c4c3)C2)cc1	inconclusive [cytotoxic, single point]	–
N#Cc1cnn(Cc2ccc(Cl)cc2)c1N	inconclusive [cytotoxic, single point]	–
Cc1ncc(CO)c(CNc2ccc(Oc3ccccc3)cc2)c1O	inconclusive [cytotoxic, single point]	–
Cc1nc2ccc(Cl)cn2c1C(=O)NN	inconclusive [cytotoxic, single point]	–
O=C(COC(=O)c1ccccc1NCCO)Nc1cc(C(F)(F)F)ccc1N1CCOCC1	inconclusive [cytotoxic, partial curve]	–
COc1ccc(N2C(=O)CCC2=O)c(OC)c1	–	inactive: -9.44%
CC1CCc2c(sc(/N=C/N(C)C)c2C#N)C1 (stereo not drawn)	–	inactive: 0.716%
Cc1cc(C(=O)N/N=C/c2cc([N+](=O)[O-])ccc2O)c2ccccc2n1	inconclusive [cytotoxic, partial curve]	–
O=C(CSc1nc2cc(Cl)ccc2c(=O)n1Cc1ccco1)Nc1ccc(S(=O)(=O)N2CCOCC2)cc1	–	inactive: 1.13%
CC(C)c1ccc(C(=O)CN2C(=O)NC3(CCc4ccccc43)C2=O)cc1 (stereo not drawn)	inconclusive [cytotoxic, partial curve]	–
COc1ccccc1NC(=S)N(Cc1ccco1)Cc1cc2ccc(C)c(C)c2[nH]c1=O	inconclusive [cytotoxic, full curve]	–
Cc1[nH]n(-c2ccccc2)c(=S)c1C=Nc1ccc([N+](=O)[O-])cc1	inconclusive [cytotoxic, partial curve]	–
